{"source": "ChEMBL document CHEMBL4888484", "about": "“Replenishing the malaria drug discovery pipeline: Screening and hit evaluation of the MMV Hit Generation Library 1 (HGL1) against asexual blood stage Plasmodium falciparum ,using a nano luciferase reporter read-out” (2022)", "note": "Out of some 150,000 compounds screened, about 540 (0.36%) showed an effect of 50% or more. The list shows a part of the results.", "data": [{"tested_on": "Plasmodium falciparum", "experiment": "Primary screen in NF54 nanoGlo assay, in single point, at 2uM, 72h; a lower Z score goes with more inhibition", "format": "functional, Erythrocyte", "conditions": "timepoint 72 hour", "units": {"% Inhibition": "%"}, "values": [{"smiles": "CC(C)[C@@H]1N(C(=O)CCc2cncc(F)c2)CC12CCC2", "% Inhibition": -2, "Z score": 0.32}, {"smiles": "Cc1nc(OCC(=O)Nc2ccc(F)cc2Cl)c2c(-c3ccccc3)noc2n1", "% Inhibition": -9, "Z score": 1.42}, {"smiles": "COCc1ccc(C(=O)N2C[C@H](C(=O)O)[C@@H](c3ccccc3C)C2)s1", "% Inhibition": 5, "Z score": -0.91}, {"smiles": "Cn1cc([C@@H]2CCCN2CC(=O)Nc2cc(C(C)(C)C)no2)cn1", "% Inhibition": -3, "Z score": 0.48}, {"smiles": "CCn1cnc2c(-c3ccccc3)cn(CC(=O)NCc3ccco3)c2c1=O", "% Inhibition": -9, "Z score": 1.31}, {"smiles": "C=C(C)COc1ccccc1C(=O)N[C@H]1C[C@H]2C(=O)NCC(=O)N2C1", "% Inhibition": -5, "Z score": 0.79}, {"smiles": "Cc1cc(C(=O)NC2CCCC2)ccc1NCC(=O)N1C(C)CCCC1C", "note": "(stereo unspecified)", "% Inhibition": -4, "Z score": 0.51}, {"smiles": "CN(C)S(=O)(=O)c1cc(NCc2cccc(-c3ccco3)c2)cc(C(=O)N2CCC[C@H](C(N)=O)C2)c1", "% Inhibition": -26, "Z score": 3.02}, {"smiles": "CCn1cc(-c2nc(C(=O)NCc3cccc(F)c3)cs2)c2cccnc21", "% Inhibition": -8, "Z score": 1.41}, {"smiles": "COc1cc(C(=O)N2CCN3CCOc4cccc2c43)ccc1OCC(N)=O", "% Inhibition": 0, "Z score": 0.05}, {"smiles": "CC[C@@H](C(=O)NC(C)(C)C)N1CCn2nc(Cc3ccccc3)cc2C1", "% Inhibition": -10, "Z score": 1}, {"smiles": "O=C(NCc1ccncc1)NC1CCCC1Oc1ccccc1", "note": "(stereo unspecified)", "% Inhibition": 0, "Z score": 0.05}, {"smiles": "CC[C@H](NC(=O)c1cccc(F)c1C)C1CC(O)C1", "note": "(stereo partly specified)", "% Inhibition": -7, "Z score": 0.93}, {"smiles": "COc1cccc(OC[C@@H](O)CNC(=O)C2CCN(c3nc(C)c4cc5c(cc4n3)CCC5)CC2)c1", "% Inhibition": 2, "Z score": -0.37}, {"smiles": "Cn1cc(C(=O)N[C@H]2CCOC[C@@H]2Oc2cccc(F)c2)cn1", "% Inhibition": -6, "Z score": 0.78}, {"smiles": "CN1CCC([n+]2nn(-c3ccccc3)c([O-])c2C(=O)Nc2ccccc2)CC1", "% Inhibition": 0, "Z score": -0.05}, {"smiles": "COc1ncc(CNCc2cncn2CC(C)C)cn1", "% Inhibition": -23, "Z score": 2.43}, {"smiles": "CCN(CC1CCOCC1)C(=O)Nc1cc(-n2cnnn2)cc(C)c1C", "% Inhibition": 4, "Z score": -0.68}, {"smiles": "CC[C@H](C)CC(=O)NS(=O)(=O)c1ccc2nc[nH]c(=O)c2c1", "% Inhibition": 2, "Z score": -0.33}, {"smiles": "CCNc1cnc(-c2noc(CC3(C)CC3)n2)cn1", "% Inhibition": -8, "Z score": 1.04}, {"smiles": "O=C(Cc1ccon1)N[C@@H]1CCCOC1", "% Inhibition": 7, "Z score": -1.35}, {"smiles": "COc1ccnc(C(=O)N2CCc3[nH]nc(C)c3C2)c1", "% Inhibition": 3, "Z score": -0.49}, {"smiles": "CC(C)CCn1c(=O)c2sccc2n(CC(=O)NC2CCCCC2)c1=O", "% Inhibition": 31, "Z score": -3.55}, {"smiles": "O=S(=O)(NCCNC1CC1)c1c(F)c(F)cc(F)c1F", "% Inhibition": -10, "Z score": 1.87}, {"smiles": "Cc1cc(O)nc(C=Cc2cn(C)nc2C(C)(C)C)n1", "% Inhibition": -5, "Z score": 0.61}, {"smiles": "CCn1cncc1-c1nc2c([nH]1)c(-c1ccccc1)nn2C", "% Inhibition": -2, "Z score": 0.29}, {"smiles": "COc1ccccc1[C@@H](NC(=O)CCc1cncn1C)c1ccco1", "% Inhibition": 1, "Z score": -0.16}, {"smiles": "Cc1nc(C)c([C@H](C)N(C)S(=O)(=O)c2cccnc2C#N)s1", "% Inhibition": -3, "Z score": 0.42}, {"smiles": "CC(C)[C@H](NC1CCOCC1)c1ncnn1C", "% Inhibition": -6, "Z score": 0.84}, {"smiles": "O=C(NC(CO)C(O)c1ccccn1)[C@H]1C[C@@H]1c1ccccc1Cl", "note": "(stereo partly specified)", "% Inhibition": -2, "Z score": 0.25}, {"smiles": "O=C(NCCc1nnc2ccccn12)c1csc(NC2CC2)n1", "% Inhibition": -10, "Z score": 1.11}, {"smiles": "C[C@@H](NC(=O)c1ccc(C(N)=O)s1)c1ncc[nH]1", "% Inhibition": 2, "Z score": -0.43}, {"smiles": "CC(C)c1nn(-c2ccccc2)c(N(C)C)c1CN(CC1CC1)C(=O)C1CCC1", "% Inhibition": 2, "Z score": -0.4}, {"smiles": "Cc1cnc(CN2C[C@@](C)(c3ccccc3)CCC2=O)cn1", "% Inhibition": -9, "Z score": 1.77}, {"smiles": "Cc1ccc(Br)c(S(=O)(=O)NC2(C#N)CC2)c1", "% Inhibition": -5, "Z score": 0.49}, {"smiles": "CCN(CC)C(=O)N1CCC[C@H](C(=O)Nc2cccc(C)c2C)C1", "% Inhibition": 0, "Z score": 0.01}, {"smiles": "CCNC(=O)N1CCC[C@H](Cn2c(C3CC3)nc3cccnc32)C1", "% Inhibition": -20, "Z score": 3.11}, {"smiles": "Cc1occc1CN(C)c1nnc(C(C)(C)C)n1C[C@H]1CCCO1", "% Inhibition": -4, "Z score": 0.73}, {"smiles": "CCCN(Cc1ccncc1)C(=O)[C@H]1CCC(=O)N(CCc2ccccc2)C1", "% Inhibition": -13, "Z score": 2.26}, {"smiles": "Cc1nc(C(=O)N2CCC[C@@]3(CCC(=O)N(CCc4c[nH]cn4)C3)C2)cs1", "% Inhibition": -9, "Z score": 0.98}, {"smiles": "Cc1nc(Cn2ncc(N(C)C)cc2=O)n(C)n1", "% Inhibition": -1, "Z score": 0.07}, {"smiles": "CCOC(=O)C(C#N)C(Cc1ccccc1)C1CCOC(C)(C)C1", "note": "(stereo unspecified)", "% Inhibition": -4, "Z score": 0.53}, {"smiles": "CCC(=O)N(CC(=O)N(Cc1ccccc1)Cc1ccc(C)o1)C1CC1", "% Inhibition": -4, "Z score": 0.42}, {"smiles": "Cc1nc2ccccc2n1C(=O)c1sc2ccccc2c1Cl", "% Inhibition": 43, "Z score": -5.1}, {"smiles": "Cc1cc(S(=O)(=O)N(C)C)cc(NC(=O)COc2cc3nc(-c4ccccc4)cc(C)n3n2)c1C", "% Inhibition": -12, "Z score": 2.35}, {"smiles": "C[C@H]1CCCN(CCC(=O)N(C)Cc2cc3ccccc3s2)C1", "% Inhibition": -6, "Z score": 1.23}, {"smiles": "NC(=O)N1CCC[C@H]1C(=O)NC1CC2CCC1C2", "note": "(stereo partly specified)", "% Inhibition": 26, "Z score": -3.33}, {"smiles": "CC(C)(C)c1noc(-c2ccsc2S(N)(=O)=O)n1", "% Inhibition": -10, "Z score": 2.01}, {"smiles": "CCC1C[N+]2([O-])CCc3cc(OC)c(OC)cc3C2CC1CC1NCCc2cc(OC)c(OC)cc21", "note": "(stereo unspecified)", "% Inhibition": 32, "Z score": -3.58}, {"smiles": "CC[C@H](C)N(Cc1cccc(OS(=O)(=O)CC)c1)C(=O)CC(C)C", "% Inhibition": -3, "Z score": 0.55}, {"smiles": "CN(C)[C@@H]1CN(C(=O)c2ccc3ccccc3n2)CC[C@@H]1CO", "% Inhibition": -17, "Z score": 2.23}, {"smiles": "COCc1nc(NCCCc2ccccc2F)cc([C@H]2C[C@@H](N)C2)n1", "% Inhibition": 11, "Z score": -1.63}, {"smiles": "O=C(NCC1(N2CCCC2)CCCC1)c1cc(=O)n(-c2ccccc2)[nH]1", "% Inhibition": -6, "Z score": 1.07}]}]}
